# Measured values from PMC9911399, “Two distinct binding modes provide the RNA-binding protein RbFox with extraordinary sequence specificity”.
# Where a chain is given by its changes, count along the chain named. The list shows a part of the results.
# B1: CGACCCA (DNA:RNA)
# RNA: GGGAGACCGGAAUUCAGAUUGUCCCGACCCAUUAAAUCCCGUCGUAGCCACCA
# DNA 1: CAATCTGAATTCCGGTCTCCC
# DNA 2: TGGTGGCTACGACGGGATT
# B2: AUGAGCC (DNA:RNA)
# RNA: B1 RNA with C25A, G26U, A27G, C28A, C29G, A31C
# DNA 1: CAATCTGAATTCCGGTCTCCC
# DNA 2: TGGTGGCTACGACGGGATT
# B3: UGAAAGC (DNA:RNA)
# RNA: B1 RNA with C25U, C28A, C29A, C30G, A31C
# DNA 1: CAATCTGAATTCCGGTCTCCC
# DNA 2: TGGTGGCTACGACGGGATT
# B4: CCAGUAU (DNA:RNA)
# RNA: B1 RNA with G26C, C28G, C29U, C30A, A31U
# DNA 1: CAATCTGAATTCCGGTCTCCC
# DNA 2: TGGTGGCTACGACGGGATT
# B5: AGUUUCG (DNA:RNA)
# RNA: B1 RNA with C25A, A27U, C28U, C29U, A31G
# DNA 1: CAATCTGAATTCCGGTCTCCC
# DNA 2: TGGTGGCTACGACGGGATT
# B6: GCAGUUU (DNA:RNA)
# RNA: B1 RNA with C25G, G26C, C28G, C29U, C30U, A31U
# DNA 1: CAATCTGAATTCCGGTCTCCC
# DNA 2: TGGTGGCTACGACGGGATT
# B7: AAGGGUA (DNA:RNA)
# RNA: B1 RNA with C25A, G26A, A27G, C28G, C29G, C30U
# DNA 1: CAATCTGAATTCCGGTCTCCC
# DNA 2: TGGTGGCTACGACGGGATT
# B8: GCUUCAA (DNA:RNA)
# RNA: B1 RNA with C25G, G26C, A27U, C28U, C30A
# DNA 1: CAATCTGAATTCCGGTCTCCC
# DNA 2: TGGTGGCTACGACGGGATT
# B9: UACGAUG (DNA:RNA)
# RNA: GGGAGACCGGAAUUCAGAUUGUCCUACGAUGUUAAAUCCCGUCGUAGCCACCA
# DNA 1: CAATCTGAATTCCGGTCTCCC
# DNA 2: TGGTGGCTACGACGGGATT
# B10: GUAUAGA (DNA:RNA)
# RNA: B1 RNA with C25G, G26U, C28U, C29A, C30G
# DNA 1: CAATCTGAATTCCGGTCTCCC
# DNA 2: TGGTGGCTACGACGGGATT
# B11: AUGGUCG (DNA:RNA)
# RNA: B9 RNA with U25A, A26U, C27G, A29U, U30C
# DNA 1: CAATCTGAATTCCGGTCTCCC
# DNA 2: TGGTGGCTACGACGGGATT
# B12: AUACCAU (DNA:RNA)
# RNA: B1 RNA with C25A, G26U, C30A, A31U
# DNA 1: CAATCTGAATTCCGGTCTCCC
# DNA 2: TGGTGGCTACGACGGGATT
# B13: AAAUGAG (DNA:RNA)
# RNA: B9 RNA with U25A, C27A, G28U, A29G, U30A
# DNA 1: CAATCTGAATTCCGGTCTCCC
# DNA 2: TGGTGGCTACGACGGGATT
# B14: ACAUACU (DNA:RNA)
# RNA: B1 RNA with C25A, G26C, C28U, C29A, A31U
# DNA 1: CAATCTGAATTCCGGTCTCCC
# DNA 2: TGGTGGCTACGACGGGATT
# B15: UGCCCUU (DNA:RNA)
# RNA: B1 RNA with C25U, A27C, C30U, A31U
# DNA 1: CAATCTGAATTCCGGTCTCCC
# DNA 2: TGGTGGCTACGACGGGATT
# B16: AUGUUAU (DNA:RNA)
# RNA: GGGAGACCGGAAUUCAGAUUGUCCAUGUUAUUUAAAUCCCGUCGUAGCCACCA
# DNA 1: CAATCTGAATTCCGGTCTCCC
# DNA 2: TGGTGGCTACGACGGGATT
# B17: CUAGAGA (DNA:RNA)
# RNA: B1 RNA with G26U, C28G, C29A, C30G
# DNA 1: CAATCTGAATTCCGGTCTCCC
# DNA 2: TGGTGGCTACGACGGGATT
# B18: ACGAUUC (DNA:RNA)
# RNA: B16 RNA with U26C, U28A, A30U, U31C
# DNA 1: CAATCTGAATTCCGGTCTCCC
# DNA 2: TGGTGGCTACGACGGGATT
# B19: UGCUGUA (DNA:RNA)
# RNA: B9 RNA with A26G, G28U, A29G, G31A
# DNA 1: CAATCTGAATTCCGGTCTCCC
# DNA 2: TGGTGGCTACGACGGGATT
# B20: UUCACAC (DNA:RNA)
# RNA: B16 RNA with A25U, G27C, U28A, U29C, U31C
# DNA 1: CAATCTGAATTCCGGTCTCCC
# DNA 2: TGGTGGCTACGACGGGATT
# B21: GACCACA (DNA:RNA)
# RNA: B1 RNA with C25G, G26A, A27C, C29A
# DNA 1: CAATCTGAATTCCGGTCTCCC
# DNA 2: TGGTGGCTACGACGGGATT
# B22: GGCGGAA (DNA:RNA)
# RNA: B1 RNA with C25G, A27C, C28G, C29G, C30A
# DNA 1: CAATCTGAATTCCGGTCTCCC
# DNA 2: TGGTGGCTACGACGGGATT
# B23: UCGCCAA (DNA:RNA)
# RNA: B1 RNA with C25U, G26C, A27G, C30A
# DNA 1: CAATCTGAATTCCGGTCTCCC
# DNA 2: TGGTGGCTACGACGGGATT
# B24: UAAGUCC (DNA:RNA)
# RNA: B9 RNA with C27A, A29U, U30C, G31C
# DNA 1: CAATCTGAATTCCGGTCTCCC
# DNA 2: TGGTGGCTACGACGGGATT
# B25: GCGGUAU (DNA:RNA)
# RNA: B16 RNA with A25G, U26C, U28G
# DNA 1: CAATCTGAATTCCGGTCTCCC
# DNA 2: TGGTGGCTACGACGGGATT
# B26: GCCAAAU (DNA:RNA)
# RNA: B16 RNA with A25G, U26C, G27C, U28A, U29A
# DNA 1: CAATCTGAATTCCGGTCTCCC
# DNA 2: TGGTGGCTACGACGGGATT
# B27: CUCUUCA (DNA:RNA)
# RNA: B16 RNA with A25C, G27C, A30C, U31A
# DNA 1: CAATCTGAATTCCGGTCTCCC
# DNA 2: TGGTGGCTACGACGGGATT
# B28: GUAAAAU (DNA:RNA)
# RNA: B16 RNA with A25G, G27A, U28A, U29A
# DNA 1: CAATCTGAATTCCGGTCTCCC
# DNA 2: TGGTGGCTACGACGGGATT
# B29: UGCCGGG (DNA:RNA)
# RNA: B9 RNA with A26G, G28C, A29G, U30G
# DNA 1: CAATCTGAATTCCGGTCTCCC
# DNA 2: TGGTGGCTACGACGGGATT
# B30: AUGAGCA (DNA:RNA)
# RNA: B16 RNA with U28A, U29G, A30C, U31A
# DNA 1: CAATCTGAATTCCGGTCTCCC
# DNA 2: TGGTGGCTACGACGGGATT
# B31: AGCACUC (DNA:RNA)
# RNA: B1 RNA with C25A, A27C, C28A, C30U, A31C
# DNA 1: CAATCTGAATTCCGGTCTCCC
# DNA 2: TGGTGGCTACGACGGGATT
# Molecular target: T1, RBFOX1 RRM (Homo sapiens, UniProt Q9NWB1 109-208)
# T1 sequence: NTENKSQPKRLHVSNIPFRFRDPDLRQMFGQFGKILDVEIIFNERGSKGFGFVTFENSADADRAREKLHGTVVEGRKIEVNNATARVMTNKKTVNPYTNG
# Test: EMSA; HiTS-Eq, 1 nM pool, 10 min; buffer printed only for the single-RNA assays: 10 mM Tris pH 7.5, 150 mM NaCl, 3.4 mM EDTA, 0.001% NP-40, 30 C
# Conditions: tags: His6 N-terminal (pET28a); label: 5' 32P
# Outline: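 Purified RbFox RRM, wild type or mutant, was incubated for 10 min in 50 µL with 1 nM of a 5′-radiolabelled RNA pool carrying 7 randomized nucleotides, whose flanks were annealed to DNA oligonucleotides, over a series of increasing protein concentrations. Unbound RNA was resolved on 8% native PAGE, cut out, reverse-transcribed, barcoded by PCR and sequenced on an Illumina HiSeq 2500. Relative association constants were derived from changes in read counts for each RNA species versus the control reaction and normalised to the cognate motif.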
row,Binder,binding signal
1,B1,0.00088 KA relative to UGCAUGU
2,B2,0.00751 KA relative to UGCAUGU
3,B3,0.0119 KA relative to UGCAUGU
4,B4,0.00253 KA relative to UGCAUGU
5,B5,0.011 KA relative to UGCAUGU
6,B6,0.0123 KA relative to UGCAUGU
7,B7,0.00894 KA relative to UGCAUGU
8,B8,0.0131 KA relative to UGCAUGU
9,B9,0.0142 KA relative to UGCAUGU
10,B10,0.0138 KA relative to UGCAUGU
11,B11,0.02 KA relative to UGCAUGU
12,B12,0.000497 KA relative to UGCAUGU
13,B13,0.00871 KA relative to UGCAUGU
14,B14,0.001 KA relative to UGCAUGU
15,B15,0.00933 KA relative to UGCAUGU
16,B16,0.00626 KA relative to UGCAUGU

row,Binder,binding signal
1,B17,0.0094 KA relative to UGCAUGU
2,B18,0.00506 KA relative to UGCAUGU
3,B19,0.0167 KA relative to UGCAUGU
4,B20,0.00289 KA relative to UGCAUGU
5,B21,0.00241 KA relative to UGCAUGU
6,B22,0.0221 KA relative to UGCAUGU
7,B23,0.00522 KA relative to UGCAUGU
8,B24,0.0101 KA relative to UGCAUGU
9,B25,0.0136 KA relative to UGCAUGU
10,B26,0.00333 KA relative to UGCAUGU
11,B27,0.00342 KA relative to UGCAUGU
12,B28,0.00108 KA relative to UGCAUGU
13,B29,0.0203 KA relative to UGCAUGU
14,B30,0.0116 KA relative to UGCAUGU
15,B31,0.00586 KA relative to UGCAUGU
